The whole screen tested about 310,000 compounds, of which about 18,000 (5.8%) were called active. This list was built around the results that the source calls inconclusive (neither active nor inactive); the mix of calls is not that of the screen. The call rests on the fitted dose curve; in most records, active means well fitted inhibition curve with a large enough effect; inconclusive means small, poorly fitted or top-dose-only effect, or another doubt; inactive means no such curve, though single readings can be large or run the other way. No potency is given beside an inconclusive call; the fits are too rough.
test: Primary qHTS for delayed death inhibitors of the malarial parasite plastid, 48 hour incubation; conditions: P. falciparum luciferase growth in erythrocytes; series mostly up to 28.7 µM
Procedure, shortened: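 Luciferase-expressing parasites in RBCs, 2% Hct / 0.1% parasitemia final; RPMI 1640 + 0.5% Albumax; 37 C, 5% CO2, one generation; luminescence read-out, lower signal = inhibition.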
Potency means the concentration at half of the fitted maximal effect; tags describe the fitted curve by direction and shape.

| SMILES | Potency |
| --- | --- |
| NS(=O)(=O)c1ccc(CCNC(=O)C(=O)NCC2OCCN2S(=O)(=O)c2ccc(Cl)cc2)cc1 (stereo not given) | inconclusive [inhibitor, full curve, poor fit] |
| C=CCOn1c(C)c(C(C)=O)c2c3no[n+]([O-])c3ccc21 | inactive |
| O=C(Nc1cc(S(=O)(=O)N2CCCCC2)ccc1Cl)C1=NN(c2ccccc2)C(=O)CC1 | inconclusive [inhibitor, partial curve] |
| O=C(COC(=O)c1ccccc1Nc1ccccc1)NCc1ccccc1Cl | inactive |
| CC1CCN(C(=O)c2ccc(NC(=O)c3cccs3)cc2)CC1 | inconclusive [inhibitor, partial curve, poor fit] |
| CSCCC(NC(=O)COc1ccccc1)C(=O)OCc1ccc([N+](=O)[O-])cc1 (stereo not given) | inactive |
| COc1cccc(Oc2c(C)oc3cc(OC(=O)N(C)C)ccc3c2=O)c1 | inconclusive [inhibitor, single point] |
| COC(=O)C1CCN(S(=O)(=O)CCNC(=O)c2ccc(F)cc2)CC1 | inactive |
| CCNc1nc(SCC(N)=O)nc2sc3c(c12)CCN(C)C3 | inconclusive [inhibitor, partial curve] |
| O=C(CN1C(=O)NC2(CCCC2)C1=O)OCc1ccccc1F | inactive |
| N#Cc1cccc(NC(=O)c2ccc(S(=O)(=O)N3CCOCC3)cc2)c1 | inconclusive [inhibitor, single point] |
| COc1ccc(CCN2C(=O)N(c3ccc(OC)cc3)C(=O)C2CC(=O)Nc2ccccc2)cc1 (stereo not given) | inconclusive [inhibitor, single point] |
| O=C(c1cc2ccccc2oc1=O)N(Cc1ccccc1)CC1CCCO1 (stereo not given) | inconclusive [inhibitor, partial curve, poor fit] |
| Cc1ccc(C)n1-c1ccc(C(=O)NCc2cccnc2)cc1 | inconclusive [inhibitor, single point] |
| O=c1[nH]cc(S(=O)(=O)N2CCN(c3cccc(C(F)(F)F)c3)CC2)c(=O)[nH]1 | inconclusive [inhibitor, single point] |
| O=C(Cc1coc2ccc3ccccc3c12)N1CCN(c2ncccn2)CC1 | inconclusive [inhibitor, single point] |
| Cc1cc(O)cc(O)c1-c1onc(C(F)(F)F)c1-c1cscn1 | inactive |
| CCCN1CCN(CCCNC(=O)c2cc3c(s2)-c2ccccc2OC3)CC1 | inconclusive [inhibitor, single point] |
| Cc1cc(C)c2oc(C(=O)N(Cc3ccccc3)c3ccccn3)cc(=O)c2c1 | active: 11.7 µM |
| CCN(CC)CCN(Cc1cc2cc3c(cc2[nH]c1=O)OCO3)C(=S)NC | inconclusive [inhibitor, partial curve, poor fit] |
| CCOCCCNC(=S)N1CCC(C(=O)c2ccc3c(c2)OCCO3)CC1 | inconclusive [inhibitor, partial curve] |
| O=C(Nc1ccc(-c2nc3ncccc3o2)cc1)c1ccc(Br)o1 | inconclusive [inhibitor, partial curve] |

| SMILES | Potency |
| --- | --- |
| O=C1CCC(C(=O)OC(C(=O)Nc2cc(Cl)cc(Cl)c2)c2ccccc2)=NN1 (stereo not given) | inconclusive [inhibitor, single point] |
| CC(C)(C)NC(=O)c1cccc(NC(=O)c2cccc(O)c2)c1 | inconclusive [inhibitor, full curve] |
| CCOc1c(Cl)cc(/C=C/C(=O)N(CC)CC(=O)Nc2ccc(NC(C)=O)cc2)cc1OC | inconclusive [inhibitor, single point] |
| CC(C1CC1)N(Cc1ccccc1)C(=S)Nc1ccccc1 (stereo not given) | inactive |
| COc1ccc2cc3cc(C(=O)NCCN4CCN(c5ccccc5F)CC4)oc3nc2c1 | inconclusive [inhibitor, partial curve, poor fit] |
| Cc1ccc(-c2nnc(SCC(=O)N(CC(C)C)c3c(N)n(Cc4ccccc4)c(=O)[nH]c3=O)n2N)cc1 | inconclusive [inhibitor, single point] |
| Cc1ccc(-c2nn(-c3ccccc3)cc2C(=O)N2CCN(c3ccccn3)CC2)cc1 | inconclusive [inhibitor, partial curve] |
| COc1ccc(NC(=O)Nc2cc(F)ccc2C)cc1 | inconclusive [inhibitor, single point] |
| CCOC(=O)/C(=C/C=C1\Sc2ccccc2N1CC)C(C)=O | inconclusive [inhibitor, partial curve, poor fit] |
| c1ccc(Nc2cccc(Nc3ccccc3)c2)cc1 | inactive |
| COc1ccc(Nc2nc(C(=O)NCCCN3CCOCC3)cs2)cc1 | inactive |
| Cc1nc2ccccn2c1/C(O)=C1\C(=O)C(=O)N(CCN2CCOCC2)C1c1cccnc1 (stereo not given) | inactive |
| COc1ccc(N2CCN(C(=O)Cc3ccc(S(=O)(=O)N4CCOCC4)s3)CC2)cc1 | inconclusive [inhibitor, full curve, poor fit] |
| C=CCNc1sc(C(=O)c2ccccc2)c(N)c1-c1nc2ccccc2s1 | inconclusive [inhibitor, partial curve, poor fit] |
| O=C1NNC(c2ccccc2)=N/C1=C\c1ccccc1 | inactive |
| O=C(CCn1c(=S)oc2ccccc21)Nc1ccccc1Br | inconclusive [inhibitor, single point] |
| Cn1c(CS(=O)Cc2c(Cl)cccc2Cl)nnc1SCc1c(Cl)cccc1Cl (stereo not given) | inconclusive [inhibitor, partial curve] |
| C/C(CC(=O)Nc1ccc(Br)cc1)=N\NC(=O)c1cccc(O)c1 | inconclusive [inhibitor, single point] |
| CCOC(=O)C(C)n1nc(/C=C/c2ccc(OC)cc2)ccc1=O (stereo not given) | inconclusive [inhibitor, partial curve, poor fit] |
| O=C(c1cccc(Cl)c1)N1CCC(=O)N(C(COCc2cccc(Cl)c2)Cc2ccccc2)CC1 (stereo not given) | inconclusive [inhibitor, partial curve, poor fit] |
| CN(C)CCCN(C(=O)CCc1ccccc1)c1nc2ccc(Br)cc2s1 | inconclusive [inhibitor, single point] |
| COc1cccc(CNS(=O)(=O)c2cc(-c3cc(C)no3)ccc2C(C)C)c1 | inactive |

| SMILES | Potency |
| --- | --- |
| CCCC(C(=O)NC1CCCC1)N(Cc1ccccc1Cl)C(=O)c1snc(C(N)=O)c1N (stereo not given) | inconclusive [inhibitor, partial curve] |
| COCCNC(=S)N(Cc1cccs1)Cc1cc2cccc(C)c2[nH]c1=O | inconclusive [inhibitor, full curve, poor fit] |
| CCC(CC)c1nnc(NC(=O)C2=COCCO2)s1 | inactive |
| c1ccc(C(c2nnnn2Cc2cccs2)N2CCN(C3CCCC3)CC2)cc1 (stereo not given) | inconclusive [inhibitor, partial curve] |
| COc1ccc(CCC(=O)N2CCCC(Nc3ccc(C)c(C)c3)C2)cc1OC (stereo not given) | inactive |
| CCCCCc1cc(O)c2c(C)cc(=O)oc2c1 | active: 2.62 µM |
| COc1ccc(CNCCc2cccc(F)c2)c2ccccc12 | inconclusive [inhibitor, single point] |
| O=[N+]([O-])c1ccc(-c2nc(-c3cccs3)c(-c3cccs3)[nH]2)cc1 | inconclusive [inhibitor, partial curve, poor fit] |
| COc1ccc(C/C(N)=N/OC(=O)c2cccc([N+](=O)[O-])c2)cc1 | inconclusive [inhibitor, single point] |
| O=C(Cn1cnc2c(nnn2Cc2ccc(F)cc2)c1=O)N1CCN(c2ccccc2)CC1 | inconclusive [inhibitor, single point] |
| CCOc1ccc(C(=O)NC2C(=O)N3C(C(=O)O)=C(COC(C)=O)CSC23)cc1OCC (stereo not given) | inconclusive [inhibitor, full curve] |
| Cc1nn(-c2ccccc2)c2c1c(C)c(CCC(=O)N1CCOCC1)c(=O)n2C | inconclusive [inhibitor, full curve] |
| Cc1cc(=O)oc2c(C)c3occc3cc12 | inconclusive [inhibitor, single point] |
| Cc1ccccc1CN1CCc2c(OCC(=O)N3CCCCC3)cccc2C1=O | inconclusive [inhibitor, single point] |
| Cc1ccc(-c2nc(CSCC(=O)N3CCOCC3)c(C)o2)cc1 | inconclusive [inhibitor, full curve, poor fit] |
| CCOc1cc(-c2ccc3c(c2)OCO3)cc(=O)c2c(C)oc(C)c12 | inconclusive [inhibitor, single point] |
| O=[N+]([O-])c1cccc(S(=O)(=O)N/N=C/c2ccc(O)cc2)c1 | inactive |
| CC(C)N(C(=O)Cn1c(SCC(=O)NC2CC2)nc2ccccc21)C(C)C | inconclusive [inhibitor, partial curve, poor fit] |
| Cc1cccc(N2CCN(C(=O)C(NS(=O)(=O)c3cccs3)c3ccccc3)CC2)c1C (stereo not given) | inconclusive [inhibitor, partial curve, poor fit] |
| CC(C)CN(C(=O)COC(=O)c1cccc2ccccc12)c1c(N)n(Cc2ccccc2)c(=O)[nH]c1=O | inconclusive [inhibitor, single point] |
| NC1=NC[C@H](Cc2ccc(O)cc2)N1CCC12CC3CC(CC(C3)C1)C2 | active: 2.94 µM |

Source: PubChem BioAssay AID504832 (National Center for Advancing Translational Sciences (NCATS), 2011)
